{"source": "PubChem BioAssay (NCI)", "note": "Several values for one entry are separate records, joined by “and”; a condition that tells them apart may be missing. Equal values may be shown once.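 Assay format: 96-well plates, 48-hour exposure. GI50 marks 50% less growth. TGI marks complete inhibition of growth.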", "data": [{"tested_on": "NCI-H322M lung", "experiment": "inhibition of tumour cell growth, NCI panel, 48 h", "values": [{"molecule": "O=C1NC(=O)/C(=C/C=C/c2ccccc2)S1", "GI50": "6.27 µM", "TGI": "> 100 µM"}, {"molecule": "S=C(N/N=C\\C=N/NC(=S)N1CCCCCC1)N1CCCCCC1", "TGI": "> 100 µM"}, {"molecule": "Cc1cc(C)c(S(=O)(=O)N(CCCCN)OCCCN)c(C)c1", "TGI": "30.2 µM"}, {"molecule": "C(=N\\Nc1nnc2c(n1)[nH]c1ccccc12)/c1cccnc1", "TGI": "> 100 µM"}, {"molecule": "OCC1OC(n2cnc3cccnc32)CC1O", "note": "(configuration not stated)", "TGI": "> 100 µM"}, {"molecule": "CCCn1c(C23CC4CC(CC(C4)C2)C3)nc2ccc(Cl)cc2c1=O", "TGI": "> 100 µM"}, {"molecule": "CC(=O)N(CN1C(=O)CCC1C(=O)O)c1ccccc1", "note": "(configuration not stated)", "TGI": "> 100 µM"}, {"molecule": "C[Si](C)(C)/C=C/CCC(C=O)(CCCl)c1ccccc1", "note": "(configuration not stated)", "TGI": "> 100 µM"}, {"molecule": "O=C1C2c3[nH]c4ccccc4c3[C@@H]3CCCCCCCCCCC3C2C(=O)N1c1ccccc1", "note": "(some centres not stated)", "TGI": "> 100 µM"}, {"molecule": "CC1=C(C(=O)OCCc2ccc([N+](=O)[O-])cc2)C(c2ccccc2[N+](=O)[O-])C(C(=O)OC(C)C)=C(C)N1", "note": "(configuration not stated)", "TGI": "> 100 µM"}, {"molecule": "Cc1cc2ccccc2n1CC(=O)NCC(C)C", "TGI": "> 100 µM"}, {"molecule": "COc1ccc(/C(C)=C(\\c2ccc(Cl)cc2)c2ccc(OCCN3CCCC3)cc2)cc1", "GI50": "3.5 µM", "TGI": "7.56 µM"}, {"molecule": "CN=C(Nn1cnnc1)OC", "TGI": "> 100 µM"}, {"molecule": "OCC(O)C(O)c1nn(-c2ccccc2)c2nc3cc(Cl)c(Cl)cc3nc12", "note": "(configuration not stated)", "TGI": "> 100 µM"}, {"molecule": "C/C(=C/CO[Si](C)(C)C(C)(C)C)C(=O)N(C)c1ccccc1I", "TGI": "31.1 µM"}, {"molecule": "COc1ccc(SC2c3cc(OC)c(OC)cc3Oc3nc(N)c(C#N)c(N)c32)cc1", "note": "(configuration not stated)", "GI50": "1.55 µM", "TGI": "2.94 µM"}, {"molecule": "C/C1=C\\[C@H](C)C[C@H](C)OC(=O)C[C@H](c2ccc(O)cc2)NC(=O)[C@@H](Cc2c(Br)[nH]c3ccccc23)N(C)C(=O)[C@H](C)NC(=O)[C@@H](C)C1", "GI50": "0.115 µM", "TGI": "> 26.1 µM"}, {"molecule": "CC(CCC(=O)O)[C@H]1CCC2[C@H]3C(CC[C@@]21C)[C@@]1(C)CCC(O)C[C@H]1C[C@@H]3O", "note": "(some centres not stated)", "TGI": "> 100 µM"}, {"molecule": "COc1ccc(N2CCN(C(=O)c3ccccc3Nc3ccnc(C(F)(F)F)c3)CC2)cc1", "GI50": "> 100 µM", "TGI": "> 100 µM"}, {"molecule": "Cc1cc2ccccc2c[n+]1CC(O)C[n+]1cc2ccccc2cc1C", "TGI": "> 100 µM"}, {"molecule": "O=S1(=O)NNC(=NCc2ccc(Cl)cc2)c2ccccc21", "TGI": "> 100 µM"}, {"molecule": "CC(C)[C@@H]1C=C(c2ccccc2)c2ccccc2C1C(C#N)(C#N)C(C)C", "note": "(some centres not stated)", "TGI": "> 100 µM"}, {"molecule": "O=C(O)C(CCc1ccccn1)c1ccccc1", "note": "(configuration not stated)", "TGI": "> 100 µM"}, {"molecule": "O=C(CC(=O)N1N=C(c2ccccc2)C(N=Nc2ccc(C(=O)O)cc2)C1=O)Nc1ccc(F)cc1", "note": "(configuration not stated)", "TGI": "86 µM"}, {"molecule": "CC(CN=C(CC(=O)c1ccc(Br)cc1)c1ccccc1)N=C(CC(=O)c1ccc(Br)cc1)c1ccccc1", "note": "(configuration not stated)", "GI50": "6.23 µM", "TGI": "> 100 µM"}, {"molecule": "O=C1/C(=C/c2ccccc2)CCc2ccc(Cl)nc21", "TGI": "31.1 µM"}, {"molecule": "CC(=O)O[C@H]1C#C/C=C\\C#CC[C@@H]2C(=O)N(C(=O)OC(C)(C)C)[C@@H]12", "TGI": "> 100 µM"}, {"molecule": "COc1ccccc1/C=C\\c1cnnc2ccccc12", "TGI": "> 10 µM"}, {"molecule": "Nc1nc2c(ncn2C2OC(CO)C(O)C2N)c(=O)[nH]1", "note": "(configuration not stated)", "TGI": "> 100 µM"}, {"molecule": "COc1ccc(/C=C/c2cc(O)cc(OC)c2)cc1", "TGI": "> 100 µM"}, {"molecule": "Cc1cccc(C(C)(C)C)c1NC(=O)/C(Cc1nc2ccc([N+](=O)[O-])cc2[nH]c1=O)=N/NC(=O)C[N+](C)(C)C", "TGI": "> 100 µM"}, {"molecule": "CC1=NNC(=NCCN(C)C)C/C1=C/c1ccccc1Cl", "TGI": "> 100 µM"}, {"molecule": "CCSc1oc(-c2ccccc2)nc1[P+](c1ccccc1)(c1ccccc1)c1ccccc1", "GI50": "0.346 µM", "TGI": "2.58 µM"}, {"molecule": "C#CCNC(Cc1cnc[nH]1)C(=O)O", "note": "(configuration not stated)", "TGI": "> 100 µM"}, {"molecule": "Cn1nc(C(F)(F)F)c(-c2ccc(Cl)c(C(F)(F)F)c2)c1-c1ccc(OCc2ccc(Cl)cc2)cc1O", "GI50": "1.85 µM", "TGI": "7.46 µM"}, {"molecule": "CC(=O)NC1C(CO)O[C@@H]2OC(C)(C)O[C@H]12", "note": "(some centres not stated)", "TGI": "> 100 µM"}, {"molecule": "CC#C[C@@]1(O)CCCC[C@@H]1O", "TGI": "> 100 µM"}, {"molecule": "COC(=O)/C=C/C(=O)C1C(C(=O)OC)C2(C(=O)OC)CCC1(C(=O)OC)N2", "note": "(configuration not stated)", "TGI": "> 100 µM"}, {"molecule": "CCOC(=O)c1nc2c3c(ncn2n1)Oc1c(c(-c2ccccc2)nn1-c1ccccc1)C3c1ccc(Cl)cc1", "note": "(configuration not stated)", "TGI": "> 100 µM"}, {"molecule": "CC1(O)C=CC2CCC1C2O", "note": "(configuration not stated)", "TGI": "> 100 µM"}, {"molecule": "O=C(c1cc(O)ccc1O)c1ccccc1C(Cl)(Cl)Cl", "TGI": "> 100 µM"}, {"molecule": "NC(N)=N/N=C/c1c(-c2ccc([N+](=O)[O-])cc2)nc2sccn12", "TGI": "3.13 µM"}, {"molecule": "O=C1c2[nH]cc(CN3CCNCC3)c2C(=O)c2c1c(O)c1ccccc1c2O", "GI50": "1.98 µM", "TGI": "8.07 µM"}, {"molecule": "C/C(=N\\NC(N)=O)C(CN1CCCCC1)C(c1ccccc1)c1c(O)c2ccccc2oc1=O", "note": "(configuration not stated)", "TGI": "> 100 µM"}, {"molecule": "COc1ccc(C2(c3ccc(OC)cc3)OC(=O)c3cccc4cccc2c34)cc1", "TGI": "6.37 µM"}, {"molecule": "CC1=CC(O)C(O)C2(C)C1CC1OC(=O)C(O)C3C(C)C(O)C4(O)OCC13C42", "note": "(configuration not stated)", "TGI": "87.7 µM"}, {"molecule": "COC(=O)C(/C(=N/NC(=O)c1ccncc1)C(=O)Nc1ccccc1OC)c1nc2ccc(Cl)cc2[nH]c1=O", "note": "(configuration not stated)", "TGI": "> 100 µM"}, {"molecule": "Cc1cc(NS(=O)(=O)c2ccc(Nc3c4ccccc4nc4c(C(=O)Nc5ccc(S(=O)(=O)N=C(N)N)cc5)cccc34)cc2)no1", "TGI": "> 100 µM"}, {"molecule": "O=C1c2ccccc2C(=O)c2c(NCCCNCCO)ccc(NCCCNCCO)c21", "TGI": "23.9 µM"}, {"molecule": "CC[C@@]1(O)C(=O)NCc2c1cc1n(c2=O)Cc2cc3ccccc3nc2-1", "GI50": "21.3 µM", "TGI": "> 100 µM"}, {"molecule": "Cc1nnc2cc(C(=O)O)c3ccccc3n2c1=O", "TGI": "> 10 µM"}, {"molecule": "CN(C)CCCNc1nn2c(=O)c3ccccc3nc2c2ccccc12", "GI50": "14.9 µM", "TGI": "> 100 µM"}, {"molecule": "Nc1ccc2c(c1)C(=O)c1ccccc1-2", "TGI": "> 100 µM"}, {"molecule": "CCOC(=O)C(C)(C)Oc1ccc2c(=O)cc(-c3ccccc3)oc2c1", "TGI": "> 100 µM"}, {"molecule": "CNC(=O)CCC(NC(C)=O)C(=O)NC(Cc1ccc(NC(=O)CCCCC(C)=O)cc1)C(=O)NC(CCC(=O)NC)C(=O)NC", "note": "(configuration not stated)", "TGI": "> 100 µM"}, {"molecule": "CCOC(=O)c1cc2c(OC(C)=O)ccc(OC(C)=O)c2s1", "TGI": "27.5 µM"}, {"molecule": "CCN(CC)CCO/N=C1\\CC[C@H]2[C@@H]3CC=C4C[C@@H](O)CC[C@]4(C)[C@H]3CC[C@]12C", "TGI": "64.4 µM"}, {"molecule": "CCCS(=O)(=O)Nc1ccc(F)c(C(=O)c2c[nH]c3ncc(-c4ccc(Cl)cc4)cc23)c1F", "GI50": "4.9 µM and 3.76 µM", "TGI": "18.4 µM and > 10 µM"}, {"molecule": "O=C(/C=C/c1ccc(-c2ccccc2[N+](=O)[O-])o1)NCc1ccc(C(=O)NCCc2ccccc2)cc1", "TGI": "> 100 µM"}, {"molecule": "O=C(c1ccccc1Nc1ccnc(C(F)(F)F)c1)N1CCN(c2cccc(Cl)c2)CC1", "GI50": "38.2 µM", "TGI": "> 100 µM"}, {"molecule": "N#Cc1cccc(NC(=O)c2ccc(C(=O)O)c(C(=O)c3ccc(C(=O)O)c(C(=O)Nc4cccc(C#N)c4)c3)c2)c1", "TGI": "> 100 µM"}, {"molecule": "COC(=O)C[CH](C(=O)OC)[Ge]([CH3])([CH3])[S]c1ccccc1", "note": "(configuration not stated)", "GI50": "> 100 µM", "TGI": "> 100 µM"}, {"molecule": "CCC1(CC)C(=O)CC[C@@]2(C)C1=CC[C@H]1[C@@H]3CC[C@H](O)[C@@]3(C)CC[C@@H]12", "TGI": "> 100 µM"}, {"molecule": "Cc1cc(S(=O)(=O)Nc2nnc3c(C(F)(F)F)cc(Cl)cn23)c(S)cc1Cl", "TGI": "> 100 µM"}, {"molecule": "C=CCC(CNC(=O)OCc1ccccc1)O[Si](C)(C)C(C)(C)C", "note": "(configuration not stated)", "TGI": "> 100 µM"}, {"molecule": "O=c1[nH]c(=O)n(C2OC(COP(=O)(O)OP(=O)(O)O)C(O)C2O)cc1F", "note": "(configuration not stated)", "TGI": "> 50 µM"}, {"molecule": "CCCCc1c2c(nc3c1CCc1cc4c(nc1-3)-c1nc3c(c(CCCC)c1CC4)CCC/C3=C\\c1ccccc1)/C(=C/c1ccccc1)CCC2", "TGI": "> 100 µM"}, {"molecule": "CCCCCCCCCCCCn1c(C)nc2ccccc21", "GI50": "15.3 µM", "TGI": "30.1 µM"}, {"molecule": "Cc1ccc(Cl)cc1Nc1nc(C(F)(F)F)ccc1C(=O)Nc1cccc(C(F)(F)F)c1", "GI50": "4.29 µM", "TGI": "16.7 µM"}, {"molecule": "CN(C)c1ccc(/C=C2\\C[C@H]3[C@@H]4CC=C5C[C@@H](N6CCCC6)CC[C@]5(C)[C@H]4CC[C@]3(C)[C@H]2O)cc1", "GI50": "4.09 µM", "TGI": "8.92 µM and 20 µM"}, {"molecule": "Cc1ccc2c(c1)C(=O)c1c-2n(CCCN)c(=O)c2cc([N+](=O)[O-])ccc12", "GI50": "0.598 µM", "TGI": "1.34 µM"}, {"molecule": "O=C(C1=C(C(=O)c2ccccc2)SC2(S1)C(C(=O)c1ccccc1)=C(C(=O)c1ccccc1)Sc1c2ssc1=O)c1ccccc1", "TGI": "> 100 µM"}, {"molecule": "O=C(c1ccccc1)C1C(C(=O)c2ccccc2)N1Cc1ccccc1", "note": "(configuration not stated)", "TGI": "> 100 µM"}, {"molecule": "O=P(Oc1ccc(Cl)cc1)(Oc1ccc(Cl)cc1)N1CC1", "TGI": "> 10 µM"}, {"molecule": "N#CC1=C(N)C(C#N)(C#N)C(c2ccc(F)cc2)C=C1C1CC1", "note": "(configuration not stated)", "TGI": "22.7 µM"}, {"molecule": "Cc1nc(C)c(C(=O)Nc2cccc3c2C(=O)NC3=O)cc1C(=O)Nc1cccc2c1C(=O)NC2=O", "TGI": "> 100 µM"}, {"molecule": "COC(=O)[C@H](C)N1C(=O)N[C@@H](C(C)C)C1=O", "TGI": "> 100 µM"}, {"molecule": "Cc1cnc[nH]c1=O", "TGI": "> 100 µM"}, {"molecule": "O=C(c1ccccc1)c1c(C(F)(F)F)n([O-])c2ccccc2[n+]1=O", "TGI": "8.15 µM"}]}]}
